In PubChem BioAssay AID485294 (National Center for Advancing Translational Sciences (NCATS), 2010):
In all, about 370,000 compounds went through this assay and about 150 (0.041%) were called active. The inconclusive results got no clear call from the source; some entries with a clear call stand among them for comparison. The call rests on the fitted dose curve; in most records, active means well fitted inhibition curve with a large enough effect; inconclusive means small, poorly fitted or top-dose-only effect; inactive means flat fitted curve, though single readings scatter. No potency is given beside an inconclusive call; the fits are too rough.

Biological target: Beta-lactamase (Escherichia coli (strain K12)) (UniProt P00811)
Experiment: qHTS Inhibitors of AmpC Beta-Lactamase (assay with detergent); further: nearly all actives have a fitted effect of over 25% in size;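 on activity change, negative = inhibition: 0% = no-compound wells and -100% = no-enzyme wells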
Details: AmpC hydrolysis of nitrocefin, absorbance 480 nm, 0.01% Triton; activity change, negative = inhibition: at 114 µM (top of the series)
How it was run: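 AmpC (5.3 nM in the dispensed reagent) in 20 mM phosphate pH 7.0 with 0.01% (detergent screen) or 0.0001% Triton X-100 was preincubated with compounds for 15 min at room temperature. Nitrocefin was then added from an 800 uM solution, and hydrolysis was followed at 480 nm.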
Potency means the concentration at half of the fitted maximal effect; tags describe the fitted curve by direction and shape.

UniProt P00811, sequence (P00811 whole entry, looked up): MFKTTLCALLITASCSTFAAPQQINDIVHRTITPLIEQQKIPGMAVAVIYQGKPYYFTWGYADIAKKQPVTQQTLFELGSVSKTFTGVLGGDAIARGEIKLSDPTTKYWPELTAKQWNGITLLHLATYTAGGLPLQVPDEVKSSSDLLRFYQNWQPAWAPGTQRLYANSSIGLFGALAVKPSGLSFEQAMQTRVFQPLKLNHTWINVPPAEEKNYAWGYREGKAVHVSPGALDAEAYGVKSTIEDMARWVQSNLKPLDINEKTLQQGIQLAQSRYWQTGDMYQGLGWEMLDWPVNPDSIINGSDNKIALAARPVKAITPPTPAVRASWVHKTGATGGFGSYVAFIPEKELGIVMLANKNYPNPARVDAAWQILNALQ

Row | SMILES | Potency | activity change, negative = inhibition
1 | C=CCSc1nncn1/N=C/c1ccc(OC)cc1 | inconclusive [inhibitor, full curve, poor fit] | 
2 | CCN(CC)S(=O)(=O)c1cc(C(=O)Nc2cc(S(=O)(=O)N3CCOCC3)ccc2N2CCCC2)ccc1F | inconclusive [inhibitor, full curve, poor fit] | 
3 | CCCn1c(N)c(C(=O)CSc2nnc3ccccn23)c(=O)n(C)c1=O |  | inactive: -3.82%
4 | Cn1c(O)c(C(=Nc2ccccc2)SCc2ccc(Cl)cc2)c(=O)n(C)c1=O |  | inactive: -11.4%
5 | Cc1cc(NC(=O)/C=C/c2ccc(F)cc2)n(-c2nc3ccccc3[nH]2)n1 |  | inactive: -20.2%
6 | CCOC(=O)C1(Cc2cccc(OC)c2)CCN(Cc2ccccc2OC)CC1 |  | inactive: -6.16%
7 | CC(C)n1nnnc1-c1cccc(Cl)c1 | inconclusive [inhibitor, full curve, poor fit] | 
8 | CCCCc1ccccc1NC(=S)NC1CCCC1 | inconclusive [inhibitor, full curve, poor fit] | 
9 | CC(C)n1c2ccccc2c2nnc(SCC(=O)OCN3C(=O)c4ccccc4C3=O)nc21 | inconclusive [inhibitor, full curve] | 
10 | CC(NC(=O)c1ccc(N2CCCC2=O)cc1)c1ccccc1 (stereo not given) | inconclusive [inhibitor, full curve, poor fit] | 
11 | COc1ccc(N2CCN(C(=O)CCn3c(=O)c4cccn4c4cccnc43)CC2)cc1 |  | inactive: 2.25%
12 | CCc1nc2ccccc2c(=O)n1-c1ccc2ccccc2c1 | inconclusive [inhibitor, full curve, poor fit] | 
13 | CC(NC(=O)Nc1cc(Cl)ccc1Cl)c1c(-n2cccc2)sc2c1CCCC2 (stereo not given) |  | inactive: -4.03%
14 | CC1CCc2c(sc(NC(=O)c3nc4ncccn4n3)c2C#N)C1 (stereo not given) | inconclusive [inhibitor, full curve] | 
15 | CCOC(=O)Cn1nnnc1CN(Cc1ccccc1)Cc1cc2cc(CC)ccc2[nH]c1=O | inconclusive [inhibitor, full curve, poor fit] | 
16 | CSc1nsc(SCC(=O)Nc2ccc(NC(C)=O)cc2)n1 |  | inactive: -4.46%
17 | CCSc1ccccc1C(=O)NCc1ccco1 | inconclusive [inhibitor, full curve, poor fit] | 
18 | N=c1c2c(ncn1Cc1ccco1)Oc1ccc3ccccc3c1C2c1ccccc1 (stereo not given) | inconclusive [inhibitor, full curve, poor fit] | 
19 | COc1ccc(C(=O)N(c2ccc(OC)cc2)S(=O)(=O)c2cccs2)cc1 | inconclusive [inhibitor, partial curve] | 
20 | CCN(C(=O)c1cc2c(s1)-c1ccccc1OC2)c1cc(Cl)ccc1OC |  | inactive: 26.5%
21 | COc1cc(OC)cc(-c2ncc3ccccn23)c1 | inconclusive [inhibitor, full curve, poor fit] | 
22 | Fc1cccc(NC(=S)NC2CCCCCCC2)c1 |  | inactive: 2.63%
23 | COC(=O)C1C(=O)c2c([nH]c(C(=O)OC3CCCCCC3)c2C)CC1C (stereo not given) | inconclusive [inhibitor, full curve] | 
24 | Cc1cc(C(=O)N2CCc3c([nH]c4ccccc34)C2c2c(F)cccc2Cl)no1 (stereo not given) |  | inactive: 9.94%

Row | SMILES | Potency | activity change, negative = inhibition
25 | CCc1ccc(C(=O)c2cnc3ccc(OC)cc3c2N2CCN(CC)CC2)cc1 | inconclusive [inhibitor, full curve, poor fit] | 
26 | CC1CN(c2nc3c(c(=O)n(Cc4ccc(Cl)c(Cl)c4)c(=O)n3C)n2C)CC(C)O1 (stereo not given) |  | inactive: 1.29%
27 | COc1cc(C2C(C(C)=O)=C(O)C(=O)N2CCN2CCOCC2)ccc1O (stereo not given) |  | inactive: -11.7%
28 | CN(C)CCCC(C)(O)C(Cc1ccccc1)c1ccccc1 (stereo not given) | inconclusive [inhibitor, full curve] | 
29 | CCc1ccc(-c2nc(CS(=O)CC(=O)NCCN3CCCCCC3)c(C)o2)cc1 (stereo not given) |  | inactive: 5.82%
30 | OC(COCC(F)(F)C(F)(F)C(F)(F)C(F)F)Cn1c2ccccc2c2ccccc21 (stereo not given) |  | inactive: -9.07%
31 | COCc1[nH][nH]c(=O)c1C=NCC(=O)OC | inconclusive [inhibitor, full curve] | 
32 | Cc1cccc(NC(=O)c2ccc(COc3ccccc3[N+](=O)[O-])o2)n1 | inconclusive [inhibitor, full curve, poor fit] | 
33 | O=C(NCCc1ccccn1)c1cc(-c2cccc3ccccc23)nc2ccccc12 |  | inactive: -5.74%
34 | CCOC(=O)Cn1c(S(=O)(=O)Cc2ccccc2)nc2ccccc21 | inconclusive [inhibitor, full curve] | 
35 | Cc1ccc(-c2nc(SCC(=O)NCC3CCCO3)c(-c3ccccc3)[nH]2)cc1 (stereo not given) | inconclusive [inhibitor, partial curve, poor fit] | 
36 | CC(C)C(NC(=O)c1cccs1)c1nnc(SCC(=O)Nc2nccs2)n1C (stereo not given) | inconclusive [inhibitor, full curve] | 
37 | COc1ccc(NC(=O)C(OC(=O)c2ccc([N+](=O)[O-])o2)c2ccccc2)cc1Cl (stereo not given) |  | inactive: -5.1%
38 | Cc1ccc(S(=O)(=O)N2CCCC2)cc1C(=O)NC1CCCCC1 |  | inactive: 4.11%
39 | Cc1ccc2c(C(=O)CN3CCN(C4CCCCC4)CC3)c(C)[nH]c2c1 |  | inactive: -9.47%
40 | CC(=O)Nc1cc(-c2nn(CC(=O)N3CCCCC3)c(=O)c3ccccc23)ccc1N1CCOCC1 | inconclusive [inhibitor, single point] | 
41 | COCC(C)NS(=O)(=O)c1ccc(C(=O)NC(Cc2ccccc2)c2ccccc2)cc1 (stereo not given) | inconclusive [inhibitor, full curve] | 
42 | COC(=O)c1ccccc1NC(=O)c1ccc(Cn2cc(Cl)cn2)o1 | inconclusive [inhibitor, full curve, poor fit] | 
43 | COc1ccc(C)cc1NC(=O)C1CCCN(S(=O)(=O)c2cnc[nH]2)C1 (stereo not given) | inconclusive [inhibitor, partial curve] | 
44 | CCc1ccc(-c2nc(C(N)=O)c3[nH]c(=O)n(-c4ccccc4OC)c3n2)cc1 | inconclusive [inhibitor, full curve, poor fit] | 
45 | C/C(=N\NC(=O)C1CCCN(S(=O)(=O)c2ccccc2)C1)c1ccccn1 (stereo not given) |  | inactive: 1.22%
46 | CN=C(Nc1ccc(C(=O)OC)cc1)SC1CC(=O)N(c2ccccc2F)C1=O (stereo not given) | inconclusive [inhibitor, partial curve] | 
47 | Cc1nn(-c2ccccc2)c(C)c1C(=O)OC(C)C(=O)NC1CCCCC1C (stereo not given) | inconclusive [inhibitor, full curve] | 
48 | CC1CCCCC1NC(=O)CN1CCN(S(=O)(=O)c2ccc(Br)s2)CC1 (stereo not given) |  | inactive: 6.44%

Row | SMILES | Potency | activity change, negative = inhibition
49 | C/C(=N\NC(=O)c1ccc(OC2OCCOC2Oc2ccc(C(=O)N/N=C(\C)c3ccncc3)cc2)cc1)c1ccncc1 (stereo not given) |  | inactive: 1.32%
50 | Cc1ccc2nc(SCC(=O)NCc3cccs3)c(C#N)cc2c1 | inconclusive [inhibitor, partial curve] | 
51 | CCOC(=O)Cn1c(CN2CCc3ccccc3C2)nc2c1c(=O)n(C)c(=O)n2C | inconclusive [inhibitor, full curve, poor fit] | 
52 | Cc1nnc(SCc2ccc(Cl)cc2Cl)[nH]c1=O |  | inactive: 0.0868%
53 | CC(NC(=O)c1cc(S(=O)(=O)N2CCCC2)cn1C)c1ccccc1 (stereo not given) | inconclusive [inhibitor, partial curve, poor fit] | 
54 | c1ccc(CNc2ccc3c(c2)ncn3C2CCCCC2)nc1 | inconclusive [inhibitor, full curve, poor fit] | 
55 | CC(=O)Nc1ccc(S(=O)(=O)N2CC3(C)CC2CC(C)(C)C3)cc1 (stereo not given) |  | inactive: -2.83%
56 | Cc1cccc(NC(=O)c2ccc(N3C(=O)C4C5C=CC(C6CC56)C4C3=O)cc2)c1 (stereo not given) |  | inactive: -7.61%
57 | CC1CN(S(=O)(=O)c2cccc(-c3cn4ccccc4n3)c2)CC(C)O1 (stereo not given) |  | inactive: 6.98%
58 | O=C(O)c1ccc2c(=O)n3c(nc2c1)/C(=C/c1ccc(Cl)cc1Cl)CC3 | inconclusive [inhibitor, partial curve] | 
59 | Cn1cc(/C=C/c2nc3ccccc3c(=O)n2-c2cccc([N+](=O)[O-])c2)c2ccccc21 | inconclusive [inhibitor, full curve, poor fit] | 
60 | CN1C(=O)C(C)(C)c2cc(S(=O)(=O)N3CCCC(C(=O)Nc4ccc(Cl)cc4)C3)ccc21 (stereo not given) |  | inactive: -12.5%
61 | COc1ccccc1C(=O)NCCC(=O)Nc1ccc(OC(F)(F)F)cc1 |  | inactive: -11.4%
62 | Cc1ccc(-c2cc3nc(-c4ccccc4)cc(N)n3n2)cc1 |  | inactive: 4.08%
63 | CCOC(=O)c1sc(C)nc1C1CCN(C(=O)OCC)CC1 | inconclusive [inhibitor, full curve, poor fit] | 
64 | C=CCn1c(CCCNC(=O)C(C)(C)C)nc2ccccc21 | inconclusive [inhibitor, full curve, poor fit] | 
65 | C=CCn1c2ccccc2c(=O)c2cc(C#Cc3cc(OC)cc(OC)c3)ccc21 |  | inactive: -3%
66 | CCOc1ccc(/C=N/NC(=O)c2ccccc2O)cc1CN1CC2CC(C1)c1cccc(=O)n1C2 (stereo not given) |  | inactive: -6.44%
67 | CCOC(=O)c1nn(-c2ccc(Cl)cc2)c2nc(CC)c(C#N)c(=O)n12 | inconclusive [inhibitor, partial curve, poor fit] | 
68 | CCc1nnc(NC(=O)c2cc(C)nc3ccccc23)s1 | inconclusive [inhibitor, full curve, poor fit] | 
69 | CCCC(CCC)C(=O)NNc1cc(=O)c2c(=O)n(C)c(=O)n(C)c2[nH]1 | inconclusive [inhibitor, full curve, poor fit] | 
70 | O=C(COC(=O)c1ccc(F)cc1F)Nc1cccc(S(=O)(=O)N2CCOCC2)c1 |  | inactive: -7.43%
